# The other results are listed elsewhere or left out. At the low end of the ranking the order means little.
# Molecular target: T1, GST-Rok (full length) (UniProt O34857)
# T1 sequence: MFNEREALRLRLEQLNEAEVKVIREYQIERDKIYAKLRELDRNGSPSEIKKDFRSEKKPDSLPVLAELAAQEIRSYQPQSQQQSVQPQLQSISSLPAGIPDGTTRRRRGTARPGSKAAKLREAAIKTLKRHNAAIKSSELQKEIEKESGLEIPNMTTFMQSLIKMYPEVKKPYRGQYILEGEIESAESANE
# Experiment: protein binding microarray;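 further: rank score from −0.5 (least bound) to 0.5 (best bound)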
# Conditions: Rok is a gene silencer of Bacillus subtilis; high values mean tight binding; most listed sequences are background and not binding sites; double strand, one strand shown
row,Sequence,binding signal [E-score]
1,ACTGCAAC,0.0921
2,ATCGCTCC,-0.298
3,AATGCAAA,0.0311
4,ACAGCGCT,-0.00367
5,CTCATACA,0.166
6,GCTCGAGC,-0.18
7,AGCCCATG,-0.112
8,AGATTAGA,0.303
9,GTGGCTGA,-0.0523
10,GCACTAAA,0.146
11,ACTTCCAA,0.0268
12,GAATTGTA,0.254
13,CGTCTAAG,-0.083
14,ATCAAGAG,0.119
15,CTCATAGC,-0.145
16,AATGATCC,0.00785
17,ACTCGGAT,0.149
18,CAATGTGC,0.14
19,ATACTGTG,0.0179
20,GATGTAGA,0.209
21,CCTAGCCA,-0.0811
22,AAATCACT,0.0315
23,GGCAACCC,-0.203
24,ACCAACGT,-0.0441
25,AGCGCAAA,0.0549

row,Sequence,binding signal [E-score]
1,GAGGGGGC,-0.397
2,AAAGTGGC,0.0515
3,CTGATACA,0.207
4,GAGAGCGA,-0.148
5,AAGCGTCA,-0.0889
6,ACTCGCAG,-0.15
7,GAGCCTGC,-0.271
8,GACCCACA,-0.107
9,ACAACGCT,-0.0157
10,AAATATAC,0.376
11,AGAGAGAA,-0.0854
12,TCATTGAA,0.1
13,ATTGCACC,0.127
14,ATAAGCCC,-0.214
15,AAACGCAC,-0.143
16,AAAGCGGA,0.0394
17,TAAGAATA,0.151
18,AATTTATC,0.242
19,CGACTAGC,-0.0143
20,GCCATCGC,-0.225
21,CCGGTCGA,-0.102
22,AAGTGACA,-0.109
23,AACTCGGA,0.0147
24,ATCCTCGC,-0.225
25,CGGGGTAG,-0.149

row,Sequence,binding signal [E-score]
1,GCTAAACC,-0.102
2,CCCACCCC,-0.433
3,ACATAGTA,0.306
4,ACCCGTCT,-0.228
5,GAAATTTC,0.261
6,ATTCTCAC,0.135
7,ATGCGCGA,0.146
8,CAAACCGA,0.0252
9,TAATGGGA,-0.132
10,CGCCGCCC,-0.472
11,CACGGGAG,-0.29
12,CCAACGAC,-0.245
13,GTCGTCAC,-0.231
14,GGCTGGGA,-0.396
15,CAACTTCA,0.121
16,ACCCATAT,0.0996
17,GACGAATA,0.164
18,CAGAGGAC,-0.173
19,TGACACCA,-0.0665
20,AAGAAGGC,-0.308
21,CTCTGACC,-0.389
22,AGTAATTC,0.29
23,CCGGCAAC,-0.178
24,GCTAGCAC,-0.133
25,CGGCTGGC,-0.279

row,Sequence,binding signal [E-score]
1,CATTCCTA,0.0121
2,CGCTCCGC,-0.194
3,AAAGCACC,-0.159
4,ACTTCATA,0.187
5,CCACCAGC,-0.118
6,AGAGCTTG,-0.289
7,GGTCCCTA,-0.204
8,CTCTTTAA,-0.0984
9,AAGCACCA,-0.202
10,AATTTTCA,0.0864
11,CGTAGCGC,-0.0333
12,CACATATC,0.0259
13,CAACTATC,0.192
14,AGGGGTGC,-0.404
15,GCTATATA,0.389
16,CATTTTGC,-0.00625
17,AGCGGTGC,-0.261
18,ACTGAACT,0.162
19,ACCGATTC,0.049
20,TAACAGCA,0.076
21,AATACACA,0.234
22,GCAACCGC,-0.205
23,CTTGCCTA,-0.147
24,GCCCACCA,-0.419
25,CATTGATA,0.237

row,Sequence,binding signal [E-score]
1,AAAGTAAA,0.195
2,CATCTGAC,-0.0595
3,AGGGGCTC,-0.331
4,ACAAGTTG,0.0787
5,GGTCTAAC,-0.0369
6,GACCAGGC,-0.135
7,TGATCGCA,0.0564
8,ACCTGGTC,-0.147
9,ATAATCAC,0.199
10,GCGCTGAC,-0.214
11,TAATCGAA,0.22
12,CCTCTATC,-0.206
13,AACTCTTA,0.178
14,CATGCCGA,0.0242
15,ACGTGGTC,-0.397
16,CCGGCTCG,-0.278
17,CGGAGGCC,-0.294
18,CCGCCTTC,-0.238
19,AAGTATGT,0.168
20,GGACGCAC,-0.198
21,ATAACACC,0.215
22,AGCGCCTG,-0.37
23,GACATCTA,0.175
24,CTTGAGTA,-0.0371
25,CACCTTAG,-0.178

row,Sequence,binding signal [E-score]
1,ACACAGTA,0.115
2,AGATCCCA,-0.0786
3,AAAGATTC,-0.0338
4,ACAGGGAC,-0.267
5,ATGGGAAA,-0.112
6,ACTACTCA,0.281
7,ACTTCAAG,0.0223
8,GTGAATCA,-0.159
9,AATATGTC,0.106
10,GAAACAGA,0.0947
11,CCCGTAAC,-0.0818
12,CGTTTTTC,-0.137
13,ACATGAGA,0.185
14,ACTGATTC,0.034
15,ACATGAAG,-0.0351
16,AAGTCAGC,-0.158
17,ACTGGGCA,-0.311
18,AAGACTTG,0.0559
19,ATACTCTC,-0.0829
20,AGTTACAT,0.276
21,TAGACATA,0.149
22,GATTTGCC,0.0218
23,CTAGTAGA,0.404
24,TCATGCCA,-0.0033
25,CGATTCGC,-0.108

row,Sequence,binding signal [E-score]
1,CAGTCCTC,-0.234
2,CTTGACTA,0.18
3,CCTACAGC,0.0204
4,GAGCCGAA,-0.103
5,ATTTGCAG,-0.00233
6,GAATTTAC,0.268
7,AAAATAAC,0.208
8,CAGAACAC,-0.133
9,CGCGTCGA,-0.0968
10,ATTTACGC,0.0487
11,GGAAGGAC,-0.3
12,AACGACGC,-0.242
13,GCAAGCGA,-0.0433
14,ACGGTTCT,0.164
15,CCAGAGAC,-0.251
16,ATCATGAC,0.0762
17,AGGGCTGC,-0.227
18,CCGCAATC,-0.0874
19,CCAGGTTA,-0.0411
20,ACTTCCGC,0.114
21,TCTCCGCA,-0.227
22,ATATTTTG,0.297
23,ATCATAGG,0.0713
24,ACAAGTTC,0.149
25,ACCAAGTC,-0.236

row,Sequence,binding signal [E-score]
1,ATGCTAAA,0.236
2,TGACTGCA,-0.0382
3,ACTCTTTC,-0.169
4,AAATTGTG,0.172
5,GCCGTCAA,-0.116
6,AAGCTTGG,0.00531
7,GCATTAGA,0.129
8,CGTCCCAG,-0.231
9,CACAGCGC,-0.227
10,CAAAGACC,-0.0604
11,AAGTATAT,0.348
12,ATATGCAG,0.167
13,AGACCCCT,-0.409
14,AATCCCTC,-0.195
15,AGCGTTTA,0.164
16,GCCTAGCA,-0.171
17,GACTTCCC,-0.0931
18,ATACCCGA,0.0119
19,ATTACCGA,0.142
20,CTGGCGAA,-0.183
21,AACGTTAA,0.123
22,CCTATTTC,-0.0235
23,AAAGGTCA,0.0157
24,ACCTACAG,0.0467
25,CCATCTTC,0.0549

row,Sequence,binding signal [E-score]
1,ACAGTCAC,-0.155
2,CCGCTAGC,0.0196
3,ACATTCAA,0.161
4,ATCTACAA,0.276
5,GGTGATAA,0.163
6,ATCGGGCC,-0.309
7,GTTTACTA,0.278
8,CACCAAAG,-0.0144
9,GATTCTGA,-0.0104
10,GATAATTA,0.223
11,ATAGCGTC,0.127
12,GTGTGCCA,-0.177
13,GCTATAGC,0.206
14,CCAGTTGC,0.0438
15,CAGATGTC,0.128
16,GGGAACCC,-0.281
17,GAAACCTA,0.123
18,GGTAAAGA,0.156
19,ACTATAGG,0.0843
